“And” between values parts separate entries of the source, which are not always exact repeats. Equal entries are not always repeated. This list was built around the results that the source calls inconclusive (neither active nor inactive); the mix of calls is not that of the screen. Potencies beside an inconclusive call are fits to weak or partial responses and may not hold up. Where a structure was tested more than once in an assay, its records may differ in their call. The source made the active and inactive calls. Calls follow the shape of the dose curve; as a rule, active = well fitted inhibition curve with a large enough effect; inconclusive = small, poorly fitted or top-dose-only effect; inactive = flat fitted curve, though single readings scatter.
tested on: HEK293; assay: Cytotoxic Profiling of Annotated Libraries Using Quantitative High-Throughput Screening (AID 1296008); conditions: Five cell lines viability, CellTiter-Glo ATP luminescence, 48-72 h; max response: stronger effect = lower value; also: nearly all actives have a fitted effect of over 60% in size
How it was run: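 Cells exposed to compounds for 48 or 72 hr at 37 degrees Celsius. Viability read as ATP-coupled luminescence with CellTiter-Glo after 10 min at room temperature.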
% is scaled to controls: 0 for no effect and ±100 for the full control effect; potency is read from the fitted curve at half-maximal effect; tags tell the direction and shape of the fitted curve.

Structure (SMILES) | Potency | max response | outcome
Cc1ccc(-c2cc(C(F)(F)F)nn2-c2ccc(S(N)(=O)=O)cc2)cc1 | inconclusive: 21.1 µM [inhibitor, single point] and inconclusive: 33.2 µM [inhibitor, single point] | inactive: -17.2% | 
COc1ccc(-c2ccc3ncc4c(c3c2)n(-c2ccc(N3CCNCC3)c(C(F)(F)F)c2)c(=O)n4C)cn1 | active: 0.0092 µM | inactive: -112% | 
Cc1cc(-c2nnc3n2CCCCC3)c(C)n1-c1ccccc1 |  | inactive: -6.24% | 
CNc1nccc(-c2cccnc2Oc2cc(C(=O)Nc3cccc(C(F)(F)F)c3)ccc2C)n1 | inconclusive: 29.1 µM [inhibitor, single point] |  | 
COc1cc2nccc(Oc3ccc(NC(=O)Nc4cc(C)on4)c(Cl)c3)c2cc1OC | inconclusive: 29.1 µM [inhibitor, single point] |  | 
CCc1cccc2c3c([nH]c12)C(CC)(CC(=O)O)OCC3 (configuration not stated) |  | inactive: 1.01% | inactive
CC(=O)O[C@H]1C(=O)[C@@]2(C)C([C@H](OC(=O)c3ccccc3)[C@]3(O)C[C@H](OC(=O)[C@H](O)[C@@H](NC(=O)c4ccccc4)c4ccccc4)C(C)=C1C3(C)C)[C@]1(OC(C)=O)CO[C@@H]1C[C@@H]2O (some centres not stated) | active: 0.0057 µM | inactive: -90.8% | 
Cn1cc(-c2ccc3ncc(Cc4ccc5ncccc5c4)n3n2)cn1 | inconclusive: 23.1 µM [inhibitor, single point] |  | 
CCC(=O)N1CCN(c2ccc(-n3c(=O)ccc4cnc5ccc(-c6cnc7ccccc7c6)cc5c43)cc2C(F)(F)F)CC1 | active: 14.8 nM and active: 53.1 nM |  | 
CN[C@H]1[C@@H](O[C@@H]2[C@H](O[C@@H]3[C@@H](O)[C@@H](O)[C@@H](N=C(N)N)[C@@H](O)[C@@H]3N=C(N)N)O[C@H](C)[C@@]2(O)C=O)O[C@@H](CO)[C@@H](O)[C@H]1O | inconclusive: 7.51 µM [inhibitor, single point] |  | 
CC(=O)c1c(C)c2cnc(Nc3ccc(N4CCNCC4)cn3)nc2n(C2CCCC2)c1=O | inconclusive: 14.8 µM [inhibitor, partial curve, poor fit] |  | 
COc1cc(-c2nn(C3CCC(N4CCN(C(C)=O)CC4)CC3)c3ncnc(N)c23)ccc1NC(=O)c1cc2ccccc2n1C (configuration not stated) | inconclusive: 7.31 µM [inhibitor, partial curve] |  | 
CC(C)(N)c1ccc(-c2nc3ccccc3nc2-c2ccccc2)cc1 | active: 0.059 µM |  | 
C1=CCOCc2cc(ccc2OCCN2CCCC2)Nc2nccc(n2)-c2cccc(c2)OCC1 | active: 3.32 µM |  | 
N#CC(=C(N)Sc1ccc(N)cc1)c1ccccc1C(F)(F)F | inconclusive: 33.2 µM [inhibitor, single point] |  | 
Nc1nccc(-c2ccc3noc(-c4ccc(Cl)cc4)c3c2)n1 | inconclusive: 33.2 µM [inhibitor, single point] |  | 
COc1ccc(-c2ccc3cc(C(=O)O)ccc3c2)cc1C12CC3CC(CC(C3)C1)C2 | inconclusive: 8.33 µM [inhibitor, single point] | inactive: 3.2% | 
CC(C)c1c(C(=O)Nc2ccccc2)c(-c2ccccc2)c(-c2ccc(F)cc2)n1CC[C@H](O)C[C@@H](O)CC(=O)O | inconclusive: 18.7 µM [inhibitor, partial curve] |  | 
C[C@@H](NC(=O)c1ncnc(N)c1Cl)c1ncc(C(=O)Nc2cc(C(F)(F)F)c(Cl)cn2)s1 | inconclusive: 37.2 µM [inhibitor, partial curve, poor fit] and inconclusive: 16.4 µM [inhibitor, single point] |  | 

Structure (SMILES) | Potency | max response | outcome
CC1(COc2ccc3c(c2)ncn3-c2ccc3cccc(N4CCC(N)CC4)c3n2)COC1 | active: 7.43 µM and active: 8.2 µM |  | 
O=C(O)c1ccc2c(c1)nc(Nc1cccc(Cl)c1)c1ccncc12 | inconclusive: 29.6 µM [inhibitor, single point] and active: 10.3 µM |  | 
COc1cc(Nc2ncc3c(n2)-c2ccc(Cl)cc2C(c2c(F)cccc2OC)=NC3)ccc1C(=O)O | inconclusive: 0.103 µM [inhibitor, full curve, poor fit] |  | 
O=C(NOC[C@H](O)CO)c1ccc(F)c(F)c1Nc1ccc(I)cc1F | inconclusive: 37.2 µM [inhibitor, single point] |  | 
c1nc2nc(Nc3ccc(N4CCOCC4)cc3)nc(NC3CCCCC3)c2[nH]1 | active: 935 nM and active: 252 nM |  | 
CCn1c(-c2nonc2N)nc2c(C#CC(C)(C)O)ncc(OC[C@H]3CCCNC3)c21 | active: 0.0469 µM |  | 
COc1cc2c(N3CCN(C(=O)Nc4ccc(OC(C)C)cc4)CC3)ncnc2cc1OCCCN1CCCCC1 | active: 18.7 µM and inconclusive: 33.5 µM [inhibitor, single point] and inconclusive: 29.1 µM [inhibitor, single point] |  | 
Cn1cc(-c2[nH]c3cc(NC(=O)[C@H](N)C4CCCCC4)cc4c3c2C=NNC4=O)cn1 | active: 3.32 µM and active: 5.8 µM |  | 
C=CC(=O)Nc1cc(NC(=O)c2ccc(C)c(NC(=O)c3ccno3)c2)cc(C(F)(F)F)c1 | inconclusive: 33.2 µM [inhibitor, single point] |  | 
Cc1cnc(Nc2ccc(N3CCN(C)CC3)cc2)nc1Nc1cccc(S(=O)(=O)NC(C)(C)C)c1 | active: 4.69 µM |  | 
Nc1nc(F)nc2c1ncn2[C@@H]1O[C@H](CO)[C@@H](O)[C@@H]1O | inconclusive: 29.9 µM [inhibitor, single point] and active: 662 nM |  | 
CC(C)c1ccccc1Cc1cc(C(=O)Nc2ccc(S(=O)(=O)c3ccccc3C(C)(C)C)cc2)c(O)c(O)c1O | inconclusive: 37.2 µM [inhibitor, single point] |  | 
O=[N+]([O-])c1cn2c(n1)OC[C@@H](OCc1ccc(OC(F)(F)F)cc1)C2 | inconclusive: 26.4 µM [inhibitor, single point] |  | 
Clc1cccc(-n2nnnc2NCc2ccccc2Oc2ccccn2)c1Cl |  | inactive: -13.7% and inactive: -15.5% | 
CCc1nc(-c2cccc(C)c2)c(-c2ccnc(NC(=O)c3ccccc3)c2)s1 | active: 14.8 µM and inconclusive: 29.1 µM [inhibitor, single point] |  | 
N#CC1(c2cccc(C(=O)Nc3cc(Oc4ccc5nc(NC(=O)C6CC6)sc5n4)ccc3F)c2Cl)CC1 | active: 13.2 µM and active: 6.51 µM |  | 
Nc1nc(=S)c2[nH]cnc2[nH]1 | active: 3.76 µM and active: 9.35 µM |  | 
CNC(=O)c1c(-c2ccc(F)cc2)oc2cc(N(CCO)S(C)(=O)=O)c(C3CC3)cc12 | inconclusive: 13.2 µM [inhibitor, partial curve, poor fit] |  | 

— PubChem BioAssay (NCATS)
